Reference: the supplement of paper PMC12217912
The list shows a part of the results. The full chains were built here from the parent and the listed change. Values near 0.05 are background.

B1: TEV protease; numbered along this chain (parent)
chain: MGESLFKGPRDYNPISSSICHLTNESDGHTTSLYGIGFGPFIITNKHLFRRNNGTLVVQSLHGVFKVKDTTTLQQHLVDGRDMIIIRMPKDFPPFPQKLKFREPQREERICLVTTNFQTKSMSSMVSDTSCTFPSGDGIFWKHWIQTKDGQCGSPLVSTRDGFIVGIHSASNFTNTNNYFTSVPKNFMELLTNQEAQQWVSGWRLNADSVLWGGHKVFMVKPEEPFQPVKEATQL

Variants of: B1
Assay: raw area under fraction-flipped curve 0-4 h after induction (AUC4h, not background-subtracted), DNA-recorder readout of cleavage of the substrate (dimensionless); higher = more cleavage of the substrate by the protease variant
Details: temperature: 34 °C; time window: 0-4 h after rhamnose induction
Description: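 In vivo DNA recorder in E. coli TOP10(DE3) ΔrhaA at 34 °C. Each TEVp single-site mutant (parent TEVp 0) is paired with a single-site variant of the 7-mer TEVs (canonical ENLYFQ|S). The substrate sits between flexible linkers in a Bxb1-sfGFP-TEVs-SsrA fusion, so cleavage stabilises Bxb1 and speeds flipping of a recombination array, read by NGS. The value is the raw area under the fraction-flipped curve over 0-4 h after rhamnose induction (AUC4h), with ≥20 reads per time point. It is not background-subtracted; inactive controls average about 0.047.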
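Further: Bxb1 expression induced with 0.2% (w/v) L-rhamnose at OD600 near 0.5, cultures sampled hourly, flipped fraction per protease–substrate barcode pair counted by paired-end Illumina sequencing.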

Variant	area with substrate EALYFQS	area with substrate EELYFQS	area with substrate EFLYFQS	area with substrate EGLYFQS	area with substrate EMLYFQS	area with substrate EQLYFQS	area with substrate ESLYFQS	area with substrate EVLYFQS	area with substrate ECLYFQS	area with substrate EDLYFQS	area with substrate EILYFQS	area with substrate EPLYFQS	area with substrate ERLYFQS	area with substrate ETLYFQS	area with substrate EKLYFQS	area with substrate ELLYFQS	area with substrate EHLYFQS	area with substrate EWLYFQS	area with substrate EYLYFQS
M188G	0.103	0.117	0.11	0.0646	0.122	0.136	0.105	0.0983	–	–	–	–	–	–	–	–	–	–	–
M188H	0.134	–	–	0.0944	–	0.0942	0.0945	0.124	0.158	0.131	0.109	0.101	0.112	0.115	–	–	–	–	–
M188Q	0.08	0.132	–	0.101	–	–	–	0.0972	0.109	–	–	0.114	0.156	–	0.102	–	–	–	–
M188V	0.105	–	–	–	0.112	–	–	0.0994	–	–	0.094	0.122	–	0.13	–	0.0995	–	–	–
E189Q	0.127	0.134	–	0.0909	–	0.121	0.0065	0.0856	0.101	0.12	–	0.113	0.0862	0.128	–	–	–	–	–
L191H	0.0645	0.0635	0.0606	–	0.0652	0.075	0.0651	–	0.051	0.0763	0.0585	–	0.0619	0.0407	0.0566	0.0488	0.0572	0.0637	–
L191R	0.0499	0.063	–	–	0.0508	0.0757	0.0562	0.0675	0.042	–	0.0445	–	0.0651	0.0517	0.0542	–	–	–	0.0709
L191W	0.0845	–	–	–	–	0.0932	–	0.0982	0.0856	0.0854	–	0.113	–	–	0.0981	–	0.0597	–	–
N193H	0.105	0.119	–	–	0.0969	–	–	–	–	0.213	–	–	0.0879	–	0.0807	0.0988	–	–	0.067
Q194D	0.0939	–	–	0.102	0.129	0.154	0.108	–	–	–	–	–	0.137	–	0.144	0.11	0.122	–	0.117
E195I	0.0997	–	–	0.0646	0.084	–	0.0919	0.0855	0.12	–	0.0665	–	0.0807	–	–	–	–	0.0807	–
Q197H	0.146	0.101	–	–	–	0.102	–	–	–	0.116	0.0682	–	0.0894	–	–	0.0948	–	–	–
Q197L	0.142	–	0.081	0.093	0.119	0.132	0.0952	–	0.102	0.0907	0.0969	–	–	–	0.0894	–	–	0.0968	–
W199T	0.0704	–	–	–	0.0653	0.0577	0.0793	0.0397	0.0694	0.0805	0.057	0.0771	0.0954	0.0794	0.0633	–	–	–	–
S201F	0.0959	0.0922	–	–	–	–	–	–	0.0899	–	0.0768	–	–	–	0.0786	–	–	–	–
W203H	0.0971	–	–	0.0688	0.061	0.0646	0.075	–	0.0639	0.105	0.0568	–	0.0667	0.0747	–	0.06	0.0586	0.0701	–
W203T	0.0588	0.0585	0.0664	0.046	0.0729	0.0884	0.0674	0.0635	–	0.0706	0.0619	0.072	0.0623	–	0.0574	0.0685	0.0664	–	–

Variant	area with substrate EALYFQS	area with substrate EELYFQS	area with substrate EFLYFQS	area with substrate EGLYFQS	area with substrate EMLYFQS	area with substrate EQLYFQS	area with substrate ESLYFQS	area with substrate EVLYFQS	area with substrate ECLYFQS	area with substrate EDLYFQS	area with substrate EILYFQS	area with substrate EPLYFQS	area with substrate ERLYFQS	area with substrate ETLYFQS	area with substrate EKLYFQS	area with substrate ELLYFQS	area with substrate EHLYFQS	area with substrate EWLYFQS	area with substrate EYLYFQS
R204Y	0.116	0.127	–	0.118	–	0.136	0.114	0.11	0.132	0.147	0.106	0.154	0.0987	–	0.119	0.0911	–	0.124	–
L205C	0.112	–	0.101	–	–	0.0897	–	0.0786	0.0862	–	–	–	0.0807	–	0.0833	–	0.0995	–	–
N206D	0.142	–	–	0.141	0.13	0.137	0.125	0.0963	0.129	0.16	0.0967	–	0.12	0.127	0.116	–	–	0.135	0.129
N206M	0.196	–	–	–	0.165	0.124	0.127	–	–	0.136	–	–	–	–	–	–	–	0.0999	–
A207F	0.0638	–	–	–	0.103	–	0.101	0.0822	0.0805	0.115	0.0724	0.0918	0.0934	0.0949	–	0.0552	0.101	–	–
D208A	0.123	–	0.0702	0.0679	–	0.0826	–	–	0.0763	–	–	–	–	0.085	0.073	0.088	0.0765	–	–
S209M	0.118	0.108	–	–	0.148	0.123	–	0.11	0.088	–	–	0.103	–	–	0.102	0.0946	–	0.0961	0.116
V210I	0.101	–	–	–	0.135	–	0.113	0.102	0.0589	–	–	–	0.106	–	–	–	–	0.0825	–
V210W	0.0969	–	0.114	–	–	–	–	0.0653	0.0899	0.109	0.07	0.0891	–	–	0.0866	0.0756	0.141	0.0873	0.102
L211E	0.119	–	0.114	–	–	0.15	0.116	0.117	0.0768	0.159	–	0.127	0.109	–	0.151	–	0.152	0.126	0.128
L211G	0.109	0.118	0.101	–	–	–	–	–	0.0954	–	–	–	0.0846	0.116	–	0.0812	0.101	0.0833	0.0952
W212H	0.0962	–	–	–	–	–	0.0065	–	–	0.0994	0.0865	–	0.0703	0.0774	0.0888	–	–	–	0.0512
W212I	0.141	–	–	0.0783	0.129	0.142	0.139	0.114	0.132	–	0.148	0.146	0.141	0.168	0.155	–	–	0.133	–
W212T	0.0926	–	–	0.0755	–	0.0953	–	–	0.0882	0.112	0.0524	0.118	0.0792	–	0.0842	–	–	0.108	–
G214H	0.132	–	–	–	0.083	0.101	–	–	0.0963	0.103	0.0858	0.136	0.0721	–	0.0735	0.0874	–	–	0.0912
G214I	0.0688	–	–	0.0881	0.0889	–	–	0.072	0.0816	0.0804	0.0663	–	–	–	0.0579	–	–	–	0.0667
